{"source": "PubChem BioAssay AID485294", "about": "(National Center for Advancing Translational Sciences (NCATS), 2010)", "note": "About 150 (0.041%) of roughly 370,000 compounds were called active. Inconclusive results, whose numbers are uncertain, are shown with a selection of clear calls. Calls follow the shape of the dose curve; as a rule, active = well fitted inhibition curve with a large enough effect; inconclusive = small, poorly fitted or top-dose-only effect; inactive = flat fitted curve, though single readings scatter. No potency is given beside an inconclusive call; the fits are too rough. Potency is read from the fitted curve at half-maximal effect; tags tell the direction and shape of the fitted curve.", "data": [{"target": "Beta-lactamase (Escherichia coli (strain K12)) (UniProt P00811)", "sequence (P00811 whole entry, looked up)": "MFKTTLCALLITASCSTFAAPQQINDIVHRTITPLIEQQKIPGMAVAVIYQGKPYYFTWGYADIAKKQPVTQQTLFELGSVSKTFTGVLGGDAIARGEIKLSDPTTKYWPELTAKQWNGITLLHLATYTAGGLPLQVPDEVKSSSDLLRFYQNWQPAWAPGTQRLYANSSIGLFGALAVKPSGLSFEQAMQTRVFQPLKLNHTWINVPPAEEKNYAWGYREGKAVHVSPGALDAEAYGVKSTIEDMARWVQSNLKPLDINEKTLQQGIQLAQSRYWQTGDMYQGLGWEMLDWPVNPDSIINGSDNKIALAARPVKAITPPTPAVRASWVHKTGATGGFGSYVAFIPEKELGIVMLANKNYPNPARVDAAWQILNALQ", "experiment": "qHTS Inhibitors of AmpC Beta-Lactamase (assay with detergent); also: nearly all actives have a fitted effect of over 25% in size;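 as to activity change, negative = inhibition: 0% = no-compound wells and -100% = no-enzyme wells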", "details": "AmpC hydrolysis of nitrocefin, absorbance 480 nm, 0.01% Triton; activity change, negative = inhibition: at 114 µM (top of the series)", "outline": "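20 mM phosphate pH 7.0 + 0.01% (detergent screen) or 0.0001% Triton X-100; 5.3 nM AmpC reagent; cpd preinc 15 min RT; nitrocefin (800 uM stock) to start; A480 q20 s × 4 min; Activity was normalised to no-enzyme and no-compound control wells.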", "values": [{"molecule": "CCc1noc(C)c1C(=O)OCC(=O)Nc1c(F)cccc1F", "Potency": "inconclusive [inhibitor, full curve, poor fit]"}, {"molecule": "NC(=S)N/N=C/c1ccc(-c2ccccc2)o1", "Potency": "inconclusive [inhibitor, full curve, poor fit]"}, {"molecule": "CC1=CC(C)(C)[N+](C)(C)c2ccc(C)cc21", "Potency": "inconclusive [inhibitor, single point]"}, {"molecule": "COc1ccc(-c2c(C(C)=O)c(C)n(C)c2C)cc1", "Potency": "inconclusive [inhibitor, partial curve, poor fit]"}, {"molecule": "COc1cccc(C(=O)CC2(O)C(=O)Nc3ccc(Cl)cc32)c1", "note": "(stereo unspecified)", "activity change, negative = inhibition": "inactive: 4.72%"}, {"molecule": "CCOc1ccc(NC(=O)COC(=O)c2ccc3c(c2)OCO3)cc1", "Potency": "inconclusive [inhibitor, partial curve, poor fit]"}, {"molecule": "Cc1occc1C(=O)NNC(=O)CN1C(=O)NC2(CCCCC2)C1=O", "Potency": "inconclusive [inhibitor, single point]"}, {"molecule": "O=C(CN1CCCC1)Nc1ccc2c(c1)CCC2", "activity change, negative = inhibition": "inactive: -10.9%"}, {"molecule": "NS(=O)(=O)c1ccc(NC(=O)CN2CCN(S(=O)(=O)c3cccs3)CC2)cc1", "Potency": "inconclusive [inhibitor, partial curve, poor fit]"}, {"molecule": "CS(=O)(=O)c1ccc(C(=O)NCc2ccccc2F)cc1", "Potency": "inconclusive [inhibitor, partial curve]"}, {"molecule": "CCOc1ccc(N(CC(=O)NC2CCCC2)C(=O)Cn2nnc(-c3ccc(C)o3)n2)cc1", "Potency": "inconclusive [inhibitor, partial curve, poor fit]"}, {"molecule": "CCC(=O)Nc1ccc(N2CCN(C(=O)c3ccccc3C)CC2)cc1", "activity change, negative = inhibition": "inactive: -11.5%"}, {"molecule": "CCNC(=O)COc1ccc(/C=N/NC(=O)c2cccnc2)cc1OC", "Potency": "inconclusive [inhibitor, full curve]"}, {"molecule": "CCOc1ccccc1CN1CCc2nc(N3CCN(c4ccccc4F)CC3)ncc2C1", "activity change, negative = inhibition": "inactive: -4.28%"}, {"molecule": "C=CCNC1=C(Cl)C(=O)N(c2ccccc2Cl)C1=O", "Potency": "inconclusive [inhibitor, partial curve, poor fit]"}, {"molecule": "C/C(=N\\NC(=O)c1cccc(F)c1)c1ccc(Br)s1", "activity change, negative = inhibition": "inactive: 2.71%"}, {"molecule": "COC(Cc1nnc(SC)n1-c1ccccc1)OC", "Potency": "inconclusive [inhibitor, full curve, poor fit]"}, {"molecule": "CC1CCc2c(sc3ncnc(SCC(=O)Nc4ccc(C(=O)O)cc4)c23)C1", "note": "(stereo unspecified)", "activity change, negative = inhibition": "inactive: 5.94%"}, {"molecule": "COc1ccccc1OCC(=O)NCC1CCCN(C(=O)c2ccccc2C(C)=O)C1", "note": "(stereo unspecified)", "Potency": "inconclusive [inhibitor, partial curve, poor fit]"}, {"molecule": "Cc1ccc(NC(=O)[C@@H]2CCC(=O)N2C2OC(=O)c3ccccc32)cc1Cl", "note": "(stereo partly specified)", "Potency": "inconclusive [inhibitor, full curve, poor fit]"}, {"molecule": "CCn1c(SCC(=O)N2CCCC2)nnc1-c1ccc(S(=O)(=O)N2CCCCCC2)cc1", "Potency": "inconclusive [inhibitor, full curve, poor fit]"}, {"molecule": "O=c1[nH]nc(CNc2cccc(C(F)(F)F)c2)c2ccccc12", "Potency": "inconclusive [inhibitor, full curve, poor fit]"}, {"molecule": "CCOC(=O)c1nn(-c2ccc(F)cc2)c2nc(-c3ccccc3)c(C#N)c(=O)n12", "Potency": "inconclusive [inhibitor, single point]"}, {"molecule": "CCC(=O)N(Cc1cc2cc(OC)ccc2[nH]c1=O)c1ccc(C)cc1C", "Potency": "inconclusive [inhibitor, full curve, poor fit]"}, {"molecule": "Cc1ccc(/C=N/NC(=O)Cc2ccc(O)cc2)s1", "activity change, negative = inhibition": "inactive: -10.1%"}, {"molecule": "N#Cc1c(/N=C\\c2ccc(O)c([N+](=O)[O-])c2)sc2c1CCCC2", "activity change, negative = inhibition": "inactive: -2.76%"}, {"molecule": "CCOc1ccc(N2CC(C(=O)Nc3ccc(F)cc3F)CC2=O)cc1", "note": "(stereo unspecified)", "activity change, negative = inhibition": "inactive: -2.76%"}, {"molecule": "CCC(C)(C)NC(=O)C(c1ccc(F)cc1)N(Cc1ccc(OC)cc1)C(=O)c1cnccn1", "note": "(stereo unspecified)", "activity change, negative = inhibition": "inactive: 0.18%"}, {"molecule": "Cc1coc2c(O)cc3c(c12)OC1(N2CCCCC2)C(=O)NCCCC31", "note": "(stereo unspecified)", "Potency": "inconclusive [inhibitor, single point]"}, {"molecule": "COC(=O)c1[nH]c2ccc(Br)cc2c1NC(=O)CN1CCCc2ccccc21", "activity change, negative = inhibition": "inactive: -9.36%"}, {"molecule": "O=C(NCc1ccccn1)NC1CCCCC1", "Potency": "inconclusive [inhibitor, single point]"}, {"molecule": "CCOc1ccc(NC(=S)NC(=O)c2c(Br)cnn2C)c([N+](=O)[O-])c1", "Potency": "inconclusive [inhibitor, partial curve]"}, {"molecule": "Cc1cc(-c2ccccc2)c2c(n1)sc1c(O)cc(=O)[nH]c12", "activity change, negative = inhibition": "inactive: -3.51%"}, {"molecule": "COc1cc(NC(=O)c2cc(-c3ccc(C)cc3)on2)cc(OC)c1OC", "Potency": "inconclusive [inhibitor, full curve, poor fit]"}, {"molecule": "COc1ccccc1/C=C/c1nc(S(=O)(=O)c2ccccc2)c(NCCN(C)C)o1", "activity change, negative = inhibition": "inactive: -14.3%"}, {"molecule": "CCN(CC(=O)NC1CCS(=O)(=O)C1)C(=O)COc1ccccc1-c1ccccc1", "note": "(stereo unspecified)", "Potency": "inconclusive [inhibitor, full curve, poor fit]"}, {"molecule": "Cc1ccc2nc(NCCNC(=O)c3ccccc3)c(C#N)cc2c1", "activity change, negative = inhibition": "inactive: -15.1%"}, {"molecule": "NC(=O)[C@@H]1CCCNc2c(F)cc([N+](=O)[O-])cc2C(=O)N[C@@H](CCC(=O)O)C(=O)N[C@@H](CO)C(=O)N1", "Potency": "inconclusive [inhibitor, full curve, poor fit]"}, {"molecule": "Cc1ccc(C(=O)NC2=NCCS2)cc1Cl", "Potency": "inconclusive [inhibitor, partial curve]"}, {"molecule": "CC(=O)Nc1ccc(S(=O)(=O)NCCC(=O)Nc2ncccc2C)cc1", "Potency": "inconclusive [inhibitor, full curve, poor fit]"}, {"molecule": "O=C(Cc1ccc(S(=O)(=O)N2CCCC2)s1)Nc1nc2c(s1)CCCC2", "Potency": "inconclusive [inhibitor, partial curve]"}, {"molecule": "Cc1[nH]c2ccccc2c1/C=N/Nc1nc(Nc2ccc(F)cc2)nc(N2CCOCC2)n1", "activity change, negative = inhibition": "inactive: -1.57%"}, {"molecule": "Cc1ccccc1NC(=S)Nc1ccccc1", "Potency": "inconclusive [inhibitor, full curve, poor fit]"}, {"molecule": "Cc1cccc(Nc2cc(C)c3c(O)cccc3n2)c1C", "Potency": "inconclusive [inhibitor, partial curve, poor fit]"}, {"molecule": "CC(=O)N[C@@H]1c2c(ccc3ccccc23)OC[C@@H]1COC(C)=O", "Potency": "inconclusive [inhibitor, full curve, poor fit]"}, {"molecule": "COc1cc(Cl)c(C)cc1NC(C)C(=O)Nc1cc(C(F)(F)F)ccc1N1CCOCC1", "note": "(stereo unspecified)", "activity change, negative = inhibition": "inactive: -3.34%"}, {"molecule": "Nc1nonc1N1CCCCC1", "Potency": "inconclusive [inhibitor, full curve, poor fit]"}, {"molecule": "CS(=O)(=O)c1ccccc1-c1nc(-c2cccc(Cl)c2)no1", "Potency": "inconclusive [inhibitor, full curve, poor fit]"}, {"molecule": "CCC(=O)N1C(C(=O)O)CSC1c1ccc(OC)cc1", "note": "(stereo unspecified)", "Potency": "inconclusive [inhibitor, partial curve]"}, {"molecule": "COc1cc(C(=O)NCc2ccco2)cc(OC)c1OC", "Potency": "inconclusive [inhibitor, partial curve]"}, {"molecule": "Cc1cc(C)c2c(=O)n(CC(=O)N3CCC(N4CCCCC4)CC3)sc2n1", "Potency": "active: 56.2 µM"}, {"molecule": "COc1cc(C(=O)NCc2cn3ccccc3n2)cc(OC)c1OC", "Potency": "inconclusive [inhibitor, full curve, poor fit]"}, {"molecule": "O=S(=O)(N/N=C1/CCCc2ccccc21)c1ccc(Br)cc1", "Potency": "inconclusive [inhibitor, single point]"}, {"molecule": "COC(=O)[C@@]1(Cc2ccccc2)[C@@H]2C(=CC(=O)[C@H]2CC(=O)C(=O)N(C)C)CN1C(=O)c1ccccc1", "Potency": "inconclusive [inhibitor, full curve, poor fit]"}, {"molecule": "COCCCNC(=S)N1CCN(c2nc(-c3ccccc3)cs2)CC1", "Potency": "inconclusive [inhibitor, full curve]"}, {"molecule": "COc1cccc(NC(=O)c2cccc(N3C(=O)C4CCC(C)CC4C3=O)c2)c1", "note": "(stereo unspecified)", "Potency": "inconclusive [inhibitor, full curve, poor fit]"}, {"molecule": "O=c1c2ccccc2nc(-c2ccco2)n1-c1ccc(Br)cn1", "Potency": "inconclusive [inhibitor, full curve, poor fit]"}, {"molecule": "Cc1ccc(-c2cc(-c3ccc4c(c3)OCO4)c(C#N)c(N)n2)o1", "activity change, negative = inhibition": "inactive: -0.741%"}, {"molecule": "CC(Oc1ccc(Br)cc1)C(=O)N(C)CC(=O)Nc1ccc(N2CCOCC2)cc1", "note": "(stereo unspecified)", "Potency": "inconclusive [inhibitor, full curve]"}, {"molecule": "CC1CN(c2cc3nccnc3cc2F)CC(C)O1", "note": "(stereo unspecified)", "Potency": "inconclusive [inhibitor, single point]"}, {"molecule": "CCc1ccc(CNC(=O)COc2cc(=O)n(CC)c3ccccc23)cc1", "Potency": "inconclusive [inhibitor, single point]"}, {"molecule": "CC1(C)C(=O)NCCN1C(=O)CSc1nccc(-c2ccc(Br)cc2)n1", "Potency": "inconclusive [inhibitor, partial curve, poor fit]"}, {"molecule": "Cc1cccc(C(=O)Nc2ccc(C(=O)N/N=C/c3cccnc3)cc2)c1", "Potency": "inconclusive [inhibitor, full curve, poor fit]"}, {"molecule": "Clc1ccc2c(c1)[C@H]1OCC[C@H]1[C@@H](c1ccco1)N2", "activity change, negative = inhibition": "inactive: -6.01%"}, {"molecule": "CC(C)(C)OC(=O)N[C@@H](COCc1ccccc1)C(=O)N[C@@H](CO)[C@H](O)[C@@H]1C[C@@H]1C(=O)NC1CC1", "Potency": "inconclusive [inhibitor, full curve, poor fit]"}, {"molecule": "Cc1ccc(Oc2cc(C#N)c(C#N)cc2-n2nnc3ccccc32)cc1C", "Potency": "inconclusive [inhibitor, full curve, poor fit]"}]}]}
